The labels stand for the following.
B1: chr14:78183846:78183847:+_ENSG00000119705_ENST00000557342|hu_hu|hu_hu_hu_mus_False|18_108 (ssRNA)
RNA: GGGAGUUCUACAGUCCGACGAUCUCUGUCUCAAAAAUCUUCAUCAGAUGUUUGAGCUCCGUGCAAAGCCUUUGCUCUUUGAGCUUGAACGUGGAUCUAUGGGAGGGAAAGCACUGUAUUUUCCUGUAAUUUUUUUUUUAAAGACAACAGAGGAUUGAGCAUCA
B2: chr8:104075188:104075189:+_ENSG00000155097_ENST00000518738|hu_hu|motif|central (ssRNA)
RNA: GGGAGUUCUACAGUCCGACGAUCCUUCCUAAACAAGGUGACAUUACACAGGUAACUGUCUUGGUCCUCUGAAAGAACAUUGCGGGACCUUGGAACUACCAUUUCGGCUAGUGUUUCAUACUGCUUAAUCCAGUCGUUGUGGUUCAACAGAGGAUUGAGCAUCA
B3: chr1:193046084:193046085:+_ENSG00000116747_ENST00000432079|hu_hu|FALSE|FALSE (ssRNA)
RNA: GGGAGUUCUACAGUCCGACGAUCUUCAUCAGGGCGCCACUUCAGUUUCCCUCUGAGACCAUGACCUGUCUUGUAAGUUUCUAAUGCGAUCAAAAUAUGAAAUGGAUGUAUACGAGCCUUUUUUAAUAGUUUUUCAUUACACAGCAACAGAGGAUUGAGCAUCA
B4: chr2:47388980:47388981:-_ENSG00000143933_ENST00000272298|hu_mus|hu_hu_hu_mus_True|98_98 (ssRNA)
RNA: GGGAGUUCUACAGUCCGACGAUCUUCAUCUGUUAACUUCUCUCCAAGGUUUGUCAUCACAUGGCGAAGCUCUGCUGCACUAAUAUAGCCAUUGCCAUCCUUAUCAAACACACGGAAUGCUUCUCUAAUCUCUUCUUCACUGUCCAACAGAGGAUUGAGCAUCA
B5: chr7:141450121:141450122:+_ENSG00000106028_ENST00000265304|hu_mus|motif|central (ssRNA)
RNA: GGGAGUUCUACAGUCCGACGAUCUCAUCCGUUCUAUGCCUUUUCUUUUGUCUGGUCACUCAGAAAUAUAAUGUUAUCAGCGGUGAUUGUUGUUGCUUGCCGCCUCACAUUGUUUUUAUCCAUGUACUCGCCAUAGUCCACUUUCAACAGAGGAUUGAGCAUCA
B6: chr10:94956308:94956309:-_ENSMUSG00000062981_ENSMUST00000075829|mus_hu|FALSE|FALSE (ssRNA)
RNA: GGGAGUUCUACAGUCCGACGAUCCCGAGGGAUAGGUUUUGUGUGUUCAUAUGGAAUGUCCACAGAAGGGUGGUAGCAUACUAUUGUCCUGCCAUCAGAAGUCAGAGCAAGCUCUACGUUGCAAUUAUAGUCAUCUGGUAGAGGCAACAGAGGAUUGAGCAUCA
B7: chr3:100432656:100432657:+_ENSG00000114354_ENST00000490574|hu_mus|FALSE|FALSE (ssRNA)
RNA: GGGAGUUCUACAGUCCGACGAUCUGUAACUUCAUCAUUACUCAGAAGCUUUCCUCUGAAUACUCGCUGCAUCAUUAGCACUAAUUCAUCGUAAGUAAUGUCUUCAUUAUGAAUGGGAAUUCGUCGGAUAUCUUCCCCAAGUUGCAACAGAGGAUUGAGCAUCA
B8: 135175974_135176979_1890_3pUTR_ENSMUSG00000041757_ENSMUST00000038295|mouse|control|control (ssRNA)
RNA: GGGAGUUCUACAGUCCGACGAUCUGUCUUGCUCGUUUAGCUUGAAGGUGUGGAGGCCAUCCCGGAACACCUCUGGGUAUGCAGGGACUUGCAUGAAAAGGUGGGCCCUGGGAGAGGAGUUCUCCACCAUUCGGUUCACCAUGCCAACAGAGGAUUGAGCAUCA
B9: chr13:51246309:51246310:+_ENSMUSG00000021395_ENSMUST00000095797|mus_mus|motif|central (ssRNA)
RNA: GGGAGUUCUACAGUCCGACGAUCUGCCUAUGAGAAAACACUGAGCACACAACGAUUGCAGCCAAGGACAGAACUGAGGUACGGUGUUCACAUGGUGAGCAGUUGUGACCACCCAGCAGUGUAAGGUGGUCAGCCUCUGUGAAACAACAGAGGAUUGAGCAUCA
B10: chrX:114877694:114877695:+_ENSG00000102024_ENST00000355899|hu_mus|FALSE|FALSE (ssRNA)
RNA: GGGAGUUCUACAGUCCGACGAUCGUUCAGUUUGGGGUUUCCGCUGACAACAUCAGCUGGAGUAACGAACUGUCUGCAACCUAAUUUAUCUGCUUGUUGAAGCAUACUUUCGGCUCUCUUUAAAUCAUCAGUUUCAUUGAAACCCAACAGAGGAUUGAGCAUCA
B11: 19499686_19499938_3247_CDS_ENSG00000127481_ENST00000375254|human|control|control (ssRNA)
RNA: GGGAGUUCUACAGUCCGACGAUCGUAUUCCUCUACUAUUUCAACAUCAUAUUUCACUGAGCUACACUUAGUGGUGGAUGCCAGUUCUAGAAGCGAGCUAGCAUGCUCAGCCUUCAUUCCCUGUUUGAUAAGGUGAUCCUUUAUCAACAGAGGAUUGAGCAUCA
B12: chr11:18536373:18536374:-_ENSG00000074319_ENST00000251968|hu_hu|motif|central (ssRNA)
RNA: GGGAGUUCUACAGUCCGACGAUCAUAUGGGUAUGUGUCCAGUAGCCAUAGGCAUAUUGGAAUAUUGUAUGUAUUACCUCGGUAAGGCACAGGGAUUGUUCCAGUGAGGUUCAUUAGUUCCCUGGAACUGCCAUCGUUAAAAACCAACAGAGGAUUGAGCAUCA
B13: 13375859_13375979_419_3pUTR_ENSG00000133794_ENST00000403290|human|control|control (ssRNA)
RNA: GGGAGUUCUACAGUCCGACGAUCUGCCUUUCCGUUUGCGGUUGCAAUCCACACCACUGGUACCAAGAGAGCUGGAAAGCAGGUCGGUGGGGCCCGGGGACAUGAAAUCACUGAUGGUUGAAGAAAUGUCCAUUCUCUGGUCUGCAACAGAGGAUUGAGCAUCA
B14: chr14:76907486:76907487:+_ENSMUSG00000022010_ENSMUST00000022587|mus_hu|FALSE|FALSE (ssRNA)
RNA: GGGAGUUCUACAGUCCGACGAUCAGUGACACCUUACAAUUGUGUAGAGAACAUGCACAGAAACAUAUGCAUAUAACUACUAUACAGGUGAUAUGCAGAAACCCCUACUGGGAAAUCCAUUUCAUUAGUUAGAACUGAGCAUUUCAACAGAGGAUUGAGCAUCA

Some of the results follow.

This experiment addresses T1, UNK ZnF1-3 (human, UniProt Q9C0B0 31-174).
T1 sequence: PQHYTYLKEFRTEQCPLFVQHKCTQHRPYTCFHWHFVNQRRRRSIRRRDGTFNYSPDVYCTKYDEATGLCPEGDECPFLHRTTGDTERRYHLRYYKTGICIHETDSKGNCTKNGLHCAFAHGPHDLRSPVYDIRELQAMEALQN
Nature of the experiment: nsRBNS (natural sequence RNA bind-n-seq); RBNS binding buffer (assumed for nsRBNS): 25 mM Tris pH 7.5, 150 mM KCl, 3 mM MgCl2, 0.01% Triton X-100, 500 ug/ml BSA, 20 U/ml SUPERase-In, 4 C; UNK is unkempt and MSI1 is Musashi-1; names of the RNAs are library labels; protein concentration not given here; high values mean tight binding.
Regarding B1, the binding signal was determined as 1.24 enrichment R.
Turning to B2, the binding signal was 0.508 enrichment R.
Consider B3, for which the binding signal is 1.34 enrichment R.
The same measure for B4: 0.775 enrichment R.
Then B5, with 0.289 enrichment R; and B6, with 1.08 enrichment R; and B7, with 0.647 enrichment R.
For B8, the binding signal came to 1.19 enrichment R.
On to B9, for which the binding signal was 0.96 enrichment R.
Regarding B10, the binding signal worked out at 0.531 enrichment R.
Consider B11, for which the binding signal is 0.447 enrichment R.
Take B12: the binding signal stood at 0.503 enrichment R.
In the case of B13, the binding signal is 1.08 enrichment R.
B14 displayed a binding signal of 1.12 enrichment R.

(Values after PMC12136788.)
